From PMC4336329 (PLoS ONE, 2015) come the findings set out here.

The whole screen tested about 310,000 compounds, of which about 14,000 (4.5%) showed an effect of 50% or more. The effect is printed as a negative number. Some of the results follow.
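Also: peak tail current of the secondary pulse compared with the same well before compound.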

Chain of human ether-à-go-go-related gene (hERG) potassium channel (Q12809 whole entry, looked up): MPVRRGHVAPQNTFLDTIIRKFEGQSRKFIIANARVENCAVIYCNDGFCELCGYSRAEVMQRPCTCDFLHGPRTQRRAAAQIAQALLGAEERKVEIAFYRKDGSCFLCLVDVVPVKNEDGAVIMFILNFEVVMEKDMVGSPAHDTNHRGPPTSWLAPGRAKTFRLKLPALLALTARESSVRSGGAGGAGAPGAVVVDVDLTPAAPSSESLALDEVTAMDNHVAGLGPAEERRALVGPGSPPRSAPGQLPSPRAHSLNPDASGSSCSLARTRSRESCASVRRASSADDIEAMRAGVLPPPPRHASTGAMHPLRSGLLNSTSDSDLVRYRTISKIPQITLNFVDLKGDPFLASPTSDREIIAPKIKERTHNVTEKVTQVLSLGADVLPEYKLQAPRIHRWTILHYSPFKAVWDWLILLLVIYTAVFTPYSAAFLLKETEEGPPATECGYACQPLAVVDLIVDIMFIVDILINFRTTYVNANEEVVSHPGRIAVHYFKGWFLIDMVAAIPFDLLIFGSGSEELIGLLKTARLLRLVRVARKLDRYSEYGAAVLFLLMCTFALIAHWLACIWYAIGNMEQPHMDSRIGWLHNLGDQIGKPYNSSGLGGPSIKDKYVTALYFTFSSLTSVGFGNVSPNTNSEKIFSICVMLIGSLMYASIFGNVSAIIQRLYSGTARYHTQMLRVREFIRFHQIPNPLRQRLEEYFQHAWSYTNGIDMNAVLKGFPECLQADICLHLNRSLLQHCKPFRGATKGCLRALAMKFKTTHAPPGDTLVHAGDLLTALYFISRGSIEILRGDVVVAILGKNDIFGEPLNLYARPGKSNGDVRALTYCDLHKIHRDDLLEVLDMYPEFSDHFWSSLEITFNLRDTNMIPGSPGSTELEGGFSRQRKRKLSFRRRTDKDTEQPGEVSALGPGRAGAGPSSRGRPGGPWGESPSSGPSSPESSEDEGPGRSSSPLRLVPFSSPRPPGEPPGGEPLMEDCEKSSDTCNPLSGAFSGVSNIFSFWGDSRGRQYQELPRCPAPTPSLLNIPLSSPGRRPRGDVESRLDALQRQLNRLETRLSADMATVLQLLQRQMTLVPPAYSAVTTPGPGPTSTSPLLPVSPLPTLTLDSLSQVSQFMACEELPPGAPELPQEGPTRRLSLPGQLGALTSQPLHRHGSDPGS

This test concerns the target human ether-à-go-go-related gene (hERG) potassium channel (human, UniProt Q12809). Kind of test: primary screen, population patch clamp on CHO cells stably expressing hERG.
Regarding `COC(=O)c1sc(-c2cccs2)cc1N`, the “hERG current change (%, negative = inhibition) at 10uM” value stood at 13.1%.
The value for `CC(C)CN(CC(C)C)c1ccc(C=C2C(=O)NC(=S)NC2=O)cc1[N+](=O)[O-]` was 9.99%; that for `COc1ccc(NC(=O)/C(=C\c2cccnc2)NC(=O)c2cccs2)cc1` was -34.6%; that for `COCc1cc(C)nc(OCC(=O)N/N=C/c2ccccc2O)c1C#N` was 20%.
The value for `Clc1ccc(CN2CCCCCC2)cc1Cl` was -7.66%.
The same measure for `Nc1ccc2[nH]ncc2c1`: -3.76%.
On to `CCOC(=O)N1CCN(S(=O)(=O)c2c(C)[nH]c(=O)[nH]c2=O)CC1`, for which the “hERG current change (%, negative = inhibition) at 10uM” value was -17.6%.
Consider `CC(=O)Nc1ccc(S(=O)(=O)NCc2ccc(C(=O)NCCN3CCCCCC3)cc2)cc1`, for which the “hERG current change (%, negative = inhibition) at 10uM” value is reported as -0.81%.
The same measure for `C[C@H](NC(=O)Nc1cccc(C(F)(F)F)c1)C(=O)O`: 0.0629%.
Regarding `CC(C)Oc1ccc(CCc2nnc(SCC(=O)O)n2-c2ccccc2)cc1`, the “hERG current change (%, negative = inhibition) at 10uM” value is on record as 11.5%.
The value for `[Br-].c1ccc2c(C[n+]3csc4ccccc43)cccc2c1` was 9.3%; that for `Cc1cccc(OCC(=O)NC(Cc2c[nH]c3ccccc23)C(=O)O)c1C` (stereo not shown) was 17%; that for `CCN1C(=O)c2ccccc2S(=O)(=O)c2ccc(C(=O)NC(C)C)cc21` was -2.53%.
The value for `O=C(NN=C1CCCCCC1)c1c[nH]c2ccccc12` was 20.4%.
Turning to `COCCCC1CCN(Cc2nc(-c3ccccc3)no2)CC1`, the “hERG current change (%, negative = inhibition) at 10uM” value is listed as -28.3%.
The same measure for `CCOC(=O)C1CCN(S(=O)(=O)c2ccc(C(C)(C)C)cc2)CC1`: 8.32%; for `NC(=S)n1[nH]c(-c2ccccc2)c(N=Nc2ccccc2C(=O)N2CCOCC2)c1=O`: -29.3%.
The value for `O=C(CC1C(=O)NCCN1Cc1ccccc1C(F)(F)F)NC1CCCCCC1` (stereo not shown) was 11.3%.
The same measure for `CCCC(C)C(=O)Nc1ccc(S(=O)(=O)Nc2nccs2)cc1` (stereo not shown): 18.3%.
On to `Cc1nnsc1-c1onc(C)c1C(=O)Nc1cc(Cl)cc(Cl)c1`, for which the “hERG current change (%, negative = inhibition) at 10uM” value is reported as 16.5%.
The value for `CCS(=O)(=O)N1CCN(c2ccc(Cl)cc2[N+](=O)[O-])CC1` was -48.3%.
The same measure for `CCOc1ccc(-c2nc(CSc3nnc(N)s3)cs2)cc1OC`: -2.02%.
Consider `COc1ccc(C(=O)Cc2cnn(-c3ccccc3)c2)c(O)c1`, for which the “hERG current change (%, negative = inhibition) at 10uM” value was found to be 11.5%.
The same measure for `CCc1cc(C(=O)Cc2ccccn2)c(O)cc1O`: 14.4%.
The same measure for `O=c1cc(C(F)(F)F)[nH]c2ccc(OC(F)(F)F)cc12`: 8.47%; for `COc1ccc(NS(=O)(=O)c2cc3c(cc2C)N(C)CCO3)cc1`: -10.5%; for `CCN(CC(=O)Nc1ccccc1OC)C(=O)c1ccccc1Sc1ccccc1C#N`: 8.48%.
As for `COc1ccc(S(=O)(=O)Nc2cc3c4c(c2)CCC(=O)N4CCC3)cc1C`, the “hERG current change (%, negative = inhibition) at 10uM” value is listed as -27.2%.
With `C/C(=N\NC(=O)CSCc1ccccc1Cl)c1cc(O)ccc1O`, the “hERG current change (%, negative = inhibition) at 10uM” value is -17.7%.
As to `Nc1nn2c(C(F)(F)F)cc(=O)[nH]c2c1N=Nc1cccc(F)c1`, the “hERG current change (%, negative = inhibition) at 10uM” value worked out at 6.07%.
The same measure for `CCC(=O)c1ccc(OCC(=O)OCC(=O)NCC2CCCCC2)cc1`: 18.7%; for `Cc1cccc(C(=O)Nc2ccc(S(=O)(=O)N3CCOCC3)cc2C)c1`: 18.6%.
The same measure for `Cn1c(=O)c(Oc2ccc(Cl)cc2)c(O)c2ccccc21`: 24.8%; for `Cc1cccc(OCC(=O)O/N=C(\N)Cc2ccc(Cl)cc2)c1`: 11%.
The value for `CCOc1ccc(N(CC(=O)NCc2ccc(F)cc2)C(=O)CCC(=O)Nc2nccs2)cc1` was 9.88%.
In the case of `CN(C)c1ncnc2c1NC1=C(S2)C(=NCCCC(=O)O)CC(C)(C)C1`, the “hERG current change (%, negative = inhibition) at 10uM” value is listed as 9.4%.
Regarding `COc1ccc(NC(=O)c2ccccc2-c2ccccc2)cc1`, the “hERG current change (%, negative = inhibition) at 10uM” value was 8.44%.
The same measure for `O=C(Nc1ccc(Cl)cc1)Nc1cccc2nsnc12`: -2.9%; for `O=C(CSc1ncccc1C(=O)O)NC1CCCCC1`: 32.2%; for `CCC(C(=O)NC1CCCC1)N(C(=O)Cn1nnc(-c2ccc(C)o2)n1)c1ccc(OC)c(OC)c1` (stereo not shown): -3.19%.
The value for `O=C(COC(=O)CNC(=O)C12CC3CC(CC(C3)C1)C2)Nc1ccccc1` was -18.6%; that for `COC(=O)c1sccc1NC(=O)Cc1ccc(OC)c(OC)c1` was 1.46%; that for `Nc1ncccc1C(=O)OCC(=O)N1CCN(S(=O)(=O)c2ccc(Cl)cc2)CC1` was -16.6%.
For `O=C(CN1C(=O)NC2(CCc3ccccc32)C1=O)c1ccc(Br)s1` (stereo not shown), the “hERG current change (%, negative = inhibition) at 10uM” value worked out at 12.7%.
The same measure for `CN1C(=O)c2ccc(NC(=O)c3cccc4ccccc34)cc2C1=O`: 19.9%; for `O=C(CC1Nc2cccc3cccc(c23)NC1=O)Nc1ccc(F)cc1` (stereo not shown): -17%.
